Results from PubChem BioAssay AID1508623 (National Center for Advancing Translational Sciences (NCATS), 2021).
Screen size: about 48,000 compounds; about 450 (0.94%) were called active. Roughly 19% stayed inconclusive and do not appear here. Calls come from the whole dose curve; as a rule, active = well fitted inhibition curve with a large enough effect; inconclusive = small, poorly fitted or top-dose-only effect; inactive = no such curve, though single readings can be large or run the other way. The list shows a part of the results.

Assay: Primary qHTS for Identification of Small Molecule Inhibitors of Huntingtin Promoter Activity; note: nearly all actives have a fitted effect of over 50% in size
Settings: HEK293 HTT promoter firefly luciferase reporter (activity 0% = vehicle and -100% = no light), 24 h; series mostly up to 57.5 µM; activity change, negative = inhibition: at the top concentration
From the text: Assay Provider: Russell L. Margolis M.D.
Department Neurology, Johns Hopkins University School of Medicine, Baltimore, MD
Huntington's Disease (HD) is a neurodegenerative disorder caused by a CAG repeat expansion in exon 1 of huntingtin (HTT). While there are currently no disease-modifying treatments for HD, recent efforts have focused on development of nucleotide-based therapeutics to lower HTT expression. As an alternative to siRNA or oligonucleotide methods, we hypothesized that suppression of HTT expression might be accomplished by small molecules that either (1) directly decrease HTT expression by suppressing HTT promoter activity or (2) indirectly decrease HTT expression by increasing the promoter activity of HTT-AS, the gene antisense to HTT that appears to inhibit expression of HTT.
We developed and employed a high throughput screen for modifiers of HTT and HTT-AS promoter activity using luminescent reporter HEK293 cells; of the 52,041 compounds tested, we identified 898 replicable hits. We used a rigorous stepwise approach to assess compound toxicity and the capacity of the compounds to specifically lower huntingtin protein in 5 different cell lines, including HEK293 cells, HD lymphoblastoid cells, mouse primary neurons, HD iPSCs differentiated into cortical-like neurons, and HD hESCs. We found no compounds which were able to lower huntingtin without lowering cell viability in all assays, though the potential efficacy of a few compounds at non-toxic doses could not be excluded.
SEQUENCE No. (1, 2, 3, etc.); […] (e.g., Cells, Incubation, Reagent, etc.); VALUE and DESCRIPTION.
1; Reagent; 4 uL; 2,500 Hek293 luciferase reporter cells per wells
3; Compound; 23 nL; Control inhibitor / compound library
5; Reagent; 2.5 uL; Firefly Luc reagent; Dual-Glo Luciferase Reporter Assay System (Promega)
6; Time; 10 min; room temperature incubation
7; Detection; Luminescence; FLuc
NOTES (numbers refer to sequence above)
1; High-throughput screening, measuring luminescence from a Hek293 luciferase reporter, was performed in 1,536 well white-walled tissue-culture treated plates. 2,500 cells were plated in 4 µL of Opti-MEM per well using a Multidrop Combi Reagent Dispenser (ThermoFisher).
2; Assay plates were cultured for 24 hours.
3; Control inhibitor (PTC124; final concentration of 50 uM) and compound library (at final concentrations of 460 nM - 57.5 uM) were added to the assay plate using the Kalypsis Pintool Robotic System equipped with 1536 pinheads.
4; Cells were then incubated for 24 hours at 37 degrees C prior to luminescence measurements.
5; In all cases, luminescence was measured using the Dual-Glo Luciferase Reporter Assay System (Promega) following the manufacturer's instructions.
6; Room temperature incubation.
7; Luminescence signal was obtained using the PerkinElmer ViewLux plate reader. Results were normalized to vehicle control (0% activity) and zero RLU (-100% activity).

| Structure (SMILES) | activity change, negative = inhibition |
| --- | --- |
| CC#C[C@]1(O)CC[C@H]2[C@@H]3C[C@H](C)C4=CC(=O)CC[C@]4(C)[C@H]3CC[C@@]21C | inactive: -14.8% |
| Clc1ccc(COC(Cn2ccnc2)c2ccc(Cl)cc2Cl)cc1 (stereo not drawn) | inactive |
| COC1(CS(=O)c2ccccc2)CCN(CCc2c[nH]c3ccc(F)cc23)CC1 (stereo not drawn) | inactive: -3.86% |
| O=C(COc1ccccc1[N+](=O)[O-])N1CCN(CCc2ccccn2)CC1 | inactive: -19.4% [at 11.5 µM] |
| Cc1ncsc1CCCl | inactive: 10.9% |
| O=C(Nc1ccccc1C(F)(F)F)c1cccn(Cc2ccccc2)c1=O | inactive: -13.9% |
| CNC(=O)Oc1cccc2ccccc12 | inactive: -3.65% |
| CCOC(=O)c1cncn1[C@H](C)c1ccccc1 | inactive: -11.6% |
| CCOC(=O)c1cncn1C(C)c1ccccc1 (stereo not drawn) | inactive: 9.48% |
| C[C@]12Cc3cn[nH]c3C[C@@H]1CC[C@@H]1[C@@H]2CC[C@@]2(C)[C@H]1CC[C@]2(C)O | inactive: 1.65% |
| CC1=C(C(=O)O)N2C(=O)[C@@H](N)[C@H]2SC1 | inactive: 0.851% [at 25.2 µM] |
| CCN1CCN(C(=O)Cc2ccc(Nc3ncc(F)c(Nc4ccc(C(=O)Nc5ccccc5Cl)cc4)n3)cc2)CC1 | inactive: 3.67% |
| CCOC(=O)c1ccc(NC(=O)CSc2nc3c(cc2C#N)N2CCC3CC2)cc1 | inactive: -27% |
| Cc1cccc(Cn2cccc(C(=O)Nc3nc4ccccc4s3)c2=O)c1 | inactive: -17.4% |
| NCC1(CC(=O)O)CCCCC1 | inactive |
| Cc1cccc(-n2c(CC3C(=O)Nc4ccc(C)cc43)nc3ccccc3c2=O)c1 (stereo not drawn) | inactive: -8.42% |
| COc1cccc(-n2c(/C=C/c3cccc(C)c3)nc3ccccc3c2=O)c1 | inactive: -8.8% [at 11.5 µM] |

| Structure (SMILES) | activity change, negative = inhibition |
| --- | --- |
| CCC(=O)C(CC(C)N(C)C)(c1ccccc1)c1ccccc1 (stereo not drawn) | inactive: -5.86% [at 116 µM] |
| Cc1ccc(-n2c(/C=C/c3cccc4ccccc34)nc3ccccc3c2=O)cc1 | inactive: -16% |
| O=[N+]([O-])O[C@H]1CO[C@H]2[C@@H]1OC[C@H]2O[N+](=O)[O-] | inactive: -8.13% |
| C[C@]12Cc3nonc3C[C@@H]1CC[C@@H]1[C@@H]2CC[C@@]2(C)[C@H]1CC[C@]2(C)O | inactive: -27.4% |
| C=C1CC[C@@]2(O)[C@H]3Cc4ccc(O)c5c4[C@@]2(CCN3CC2CC2)[C@H]1O5 | inactive: -6.16% |
| O=C(CCCN1CCC2(CC1)C(=O)NCN2c1ccccc1)c1ccc(F)cc1 | inactive: 7.18% |
| O=c1[nH]oc2c1CCNC2 | inactive: 12.8% |
| CCOC(C(=O)OCCN(C)C)(c1ccccc1)c1ccccc1 | inactive: -6.69% |
| CN1[C@@H]2CC[C@H]1CC(OC(=O)c1cc(Cl)cc(Cl)c1)C2 (stereo partly drawn) | inactive: -9.19% |
| CCn1c(CN2CCN(C)CC2)nc2ccccc21 | inactive: -13.3% |
| CC(=O)C1CCOC1=O (stereo not drawn) | inactive: 0.304% |
| O=C(c1ccc2c(c1)N(Cc1c(F)cccc1Cl)C(=O)c1ccccc1S2)N1CCC2(CC1)OCCO2 | inactive: -11.9% |
| C[C@H]1O[C@@H](O[C@H]2[C@@H](O)C[C@H](O[C@H]3[C@@H](O)C[C@H](O[C@H]4CC[C@@]5(C)[C@H](CC[C@@H]6[C@@H]5CC[C@]5(C)[C@@H](C7=CC(=O)OC7)CC[C@]65O)C4)O[C@@H]3C)O[C@@H]2C)C[C@H](O)[C@@H]1O | inactive: -38.6% |
| CCOc1ccc(CN2C(=O)c3ccccc3Sc3ccc(C(=O)N4CCC5(CC4)OCCO5)cc32)cc1 | inactive: -26.5% |
| Cc1c(C(c2ccc(O)cc2)c2c(O)c3ccccc3oc2=O)c(=O)n(-c2ccccc2)n1C (stereo not drawn) | inactive: -6.56% |
| Cc1ccc(-n2c(/C=C/c3cccc(C(F)(F)F)c3)nc3ccccc3c2=O)cc1 | inactive: -29.8% |
